Self-cleavage data for 84 variants are collected here from the RNAGym collection of RNA variant scans (doi:10.1093/nar/gkz1192).

Read counts are not given, so values of variants with three or more changes are uncertain.

The chains are these.
B1: CPEB3 Ribozyme (parent)
chain: UAACAGGGGGCCACAGCAGAAGCGUUCACGUCGCAGCCCCUGUCAGAUUCUGGUGAAUCUGCGAAUUCUGCUGUAUAUCUC

Variants of B1 are the subject of the series. Nature of the series: self-cleavage, relative activity (ratio to wild type); higher = more cleavage; in vitro, sequencing. In a few lines:
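CPEB3 self-cleaving ribozyme mutant libraries were made by rounds of error-prone PCR, barcoded, and transcribed in vitro with T7 RNA polymerase for 5 hours at 37°C. Cleavage occurred during transcription and a 15 min DNase I step before EDTA stop. RNAs were reverse transcribed with template switching and Illumina-sequenced, with DNA sequencing mapping barcodes to variants. Relative activity is the variant's cleaved/total read fraction divided by wild type's (minimum 5 reads), averaged across three batches.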
Regarding A20U U41C U49C, the self-cleavage was 0.13. Turning to A20G C23U U78A, the self-cleavage worked out at 0.12. As to A20G U26A A56G A57G, the self-cleavage came out at 0.16. In the case of A20G U51C U80C, the self-cleavage was determined as 1.04. On to A20G U48A A57U, for which the self-cleavage was found to be 0.79. As to A21G A35G C40U, the self-cleavage worked out at 1.11.

Take A20U A28U A45G: the self-cleavage was 0.05. Consider A20G U26C U43C A57G U76C, for which the self-cleavage amounted to 0.22. With A21C U31A A57G C71A, the self-cleavage came to 0.12.

With A21G A35G U58C G70A, the self-cleavage was determined as 0.29. As to A20U A28U U41C U43C U49A U80G, the self-cleavage was determined as 0.8. As to A20G U49A A77U, the self-cleavage amounted to 0.57.

On to A20U G33A A56G U60A, for which the self-cleavage stood at 0.13.

As for A20G U25C U54C U60C A64G U80C, the self-cleavage came to 0. As to A21G A28G G36A A56G, the self-cleavage was determined as 0.25. For the variant A20G C23G A56G U60C, the self-cleavage worked out at 0.39. Take A20U C29U C38G A45U: the self-cleavage is 0.17. With A20U A56U U74A, the self-cleavage came to 0.24. Take A20U A28G A77G: the self-cleavage is 0.26. A20U U43G A45G U67C: the self-cleavage was determined as 0.05. A20G C29U U31C: the self-cleavage came out at 0.11.

With A20U U31A U72C, the self-cleavage came to 0.31. For A20G U60C A65U U74C, the self-cleavage was found to be 0.14. The result for A20U U41A A77G reads 0.18; that for A20U U26A A45G A57G, 0.19.

Consider A20U U25A U26A U31A U41G U43C C62U, for which the self-cleavage amounted to 0.09. The result for A20U U25C U41C A75U reads 0.29. Turning to A20U U25A U54A U72A, the self-cleavage came to 0.13.

Take A20U A56G C68U U69C: the self-cleavage was 0.13. Turning to A21C U26G U31A C37A A47G G63A A75U, the self-cleavage came out at 0.04. For A20U A65G U67C, the self-cleavage amounted to 0.1. With A21C U25C U41A U78C U80C, the self-cleavage is 0.25. A21G A28C U69A: the self-cleavage was 0.1. Turning to A20G U31A U49C U80C, the self-cleavage was found to be 0.11. Take A20G A56G U78C: the self-cleavage came to 0.44.

As to A20U U58A U80C, the self-cleavage was 0.17. The result for A20U C27A G30A A65G reads 0.18; that for A20U U31C U49C, 0.19.

Consider A21G A28G U41A A47G U48C U67C, for which the self-cleavage was found to be 0.33. For A20U U54A U76C, the self-cleavage was 0.25. As for A20G U54C U76C U78A, the self-cleavage came out at 0.49.

With A20U G61A U67C, the self-cleavage worked out at 0.37. Regarding A20G U41C U43C A45U A64G A65G, the self-cleavage worked out at 0.19.

Consider A20G C32U A35U A57C, for which the self-cleavage came out at 0.04.

On to A20G U25A A35G U49A A56U U69C U80A, for which the self-cleavage came to 0.22.

A20U U43C A47G U54C C62U A64G: the self-cleavage is 0.11. As to A20U A21C C79U, the self-cleavage was 0.29.

With A20G U31C A35U A57G U58A U60C U74A, the self-cleavage was 0.05.

On to A21G A28G U60A A65G U72C A75U U76C, for which the self-cleavage is 0.16.

For the variant A20G A45U U60C U69A, the self-cleavage turned out to be 0.07. The result for A20G U41C U51C U54C reads 0.93; that for A20G C29A U48C A65U, 0.11. With A20U U25C U31A U49C U66C, the self-cleavage worked out at 0.06. The result for A20U C29U A65G U74A reads 0.07. Consider A21G A28G G52A, for which the self-cleavage came to 0.33. In the case of A20U A47U U51C U69A G73A, the self-cleavage came out at 0.32. The result for A20U G30C U41C U51A reads 0.11; that for A20U U25C A35G U72C, 0.07; that for A20G G42C A57G U60A A64U, 0.06. For A20U U41C U78C, the self-cleavage worked out at 0.2. Regarding A20G U26C U54C G70A, the self-cleavage was found to be 0.3.

A20G U26A C40A: the self-cleavage was 0.21. The result for A20G U25A U41A G53A A64C reads 0.18; that for A20G C29G A65U U74C, 0.1; that for A20G U43C U51G U72A, 0.17. A20U A45U U69C: the self-cleavage was found to be 0.45. For A20G A47U C71A A77G, the self-cleavage stood at 0.09.

Consider A20G U25C U54C U67C, for which the self-cleavage was determined as 0.35. The result for A21G A35G A45U A47G A65G U72A reads 0.18.

Take A20U C39A U58C U80A: the self-cleavage stood at 0.35. Regarding A21G A28G G73A U74A C81U, the self-cleavage stood at 0.91. Consider A20G C39G U48A U51A, for which the self-cleavage was found to be 0.17. In the case of A21G A35G U41G U67G, the self-cleavage stood at 0.2. As to A20G U31A C50U A77G, the self-cleavage turned out to be 0.12. With A20G U25C U41C A57G, the self-cleavage was 0.32. Consider A21G A35G G55A, for which the self-cleavage was found to be 0.86. For A20G U78C U80A, the self-cleavage stood at 0.87. The result for A20G A65G U72C reads 0.43. In the case of A20G U54C U60C, the self-cleavage was determined as 0.62.

Regarding A20G U49C A57G U72C U80C, the self-cleavage was determined as 0.16. A20G C38U U41C: the self-cleavage was found to be 0.37.

Regarding A20G U31C C44G U66C, the self-cleavage was found to be 0.28. Regarding A20U G30A A77U, the self-cleavage was 0.07. Turning to A20G U69G G70U, the self-cleavage was 0.21.
